# According to the supplement of paper PMC8728848:
# Some of the results follow.
# B1: HPL (Tachypleus tridentatus) (protein)
# chain: MEDDCTCVTDRSLEGKLMKHPSTPAVYQILDGCRRLVPNPPTYNNIYKNWECIQSNILEKLLCKCDSLSNGAELIKGSGDTVYLLSNGVKRPIADPETFNGFCFDWNKIKTYSDIVINSLSTGPIIIIKHHHHHH
# Tests used:
# Test in all cases: glycan array binding signal (z-score within array); higher = stronger binding
# Settings in all cases: glycan notation: IUPAC condensed, linker removed
# [1] = biological target: GalNAc(b1-4)GlcNAc(b1-2)Man
# How it was run: (§1)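 From the Consortium for Functional Glycomics database, 3228 arrays were curated, keeping only those whose protein sequence was available. Binding is given as a within-array Z-score averaged across arrays sharing a protein sequence and across linkers. Negative Z-scores can be read as non-binding.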
# [2] = biological target: GalNAc(b1-4)GlcNAc(b1-2)Man(a1-3)[GalNAc(b1-4)GlcNAc(b1-2)Man(a1-6)]Man(b1-4)GlcNAc(b1-4)GlcNAc
# How it was run: as §1
# [3] = biological target: GalNAc(b1-4)GlcNAc(b1-3)GalNAc(b1-4)GlcNAc
# How it was run: as §1
# [4] = biological target: GalNAc(b1-4)GlcNAc6S
# How it was run: as §1
# [5] = biological target: GalNAc(b1-6)GalNAc
# How it was run: as §1
# [6] = biological target: GalNAc3S(b1-4)GlcNAc
# How it was run: as §1
# [7] = biological target: GalNAc3S(b1-4)GlcNAc3S
# How it was run: as §1
# [8] = biological target: GalNAc3S(b1-4)[Fuc(a1-3)]GlcNAc
# How it was run: as §1
# [9] = biological target: GalNAc4S6S(b1-4)GlcNAc
# How it was run: as §1
# [10] = biological target: GalNAc6S(b1-4)GlcNAc
# How it was run: as §1
# [11] = biological target: Glc(a1-4)Glc
# How it was run: as §1
# [12] = biological target: Glc(a1-4)Glc(a1-4)Glc(a1-4)Glc
# How it was run: as §1
# [13] = biological target: Glc(a1-6)Glc(a1-6)Glc
# How it was run: as §1
# [14] = biological target: Glc(a1-6)Glc(a1-6)Glc(a1-6)Glc
# How it was run: as §1
# [15] = biological target: Glc(b1-4)Glc
# How it was run: as §1
# [16] = biological target: Glc(b1-6)Glc
# How it was run: as §1
# [17] = biological target: GlcA(b1-3)Gal
# How it was run: as §1
# [18] = biological target: GlcA(b1-3)GlcNAc
# How it was run: as §1
# [19] = biological target: GlcA(b1-6)Gal
# How it was run: as §1
# [20] = biological target: GlcA3S(b1-3)Gal(b1-4)GlcNAc(b1-2)Man
# How it was run: as §1
# [21] = biological target: GlcA3S(b1-3)Gal(b1-4)GlcNAc(b1-3)Gal(b1-4)Glc
# How it was run: as §1
# [22] = biological target: GlcNAc(a1-3)Gal(b1-4)GlcNAc
# How it was run: as §1
# [23] = biological target: GlcNAc(a1-4)Gal(b1-3)GlcNAc
# How it was run: as §1
# [24] = biological target: GlcNAc(a1-4)Gal(b1-4)GalNAc
# How it was run: as §1
# [25] = biological target: GlcNAc(a1-4)Gal(b1-4)GlcNAc
# How it was run: as §1
# [26] = biological target: GlcNAc(a1-4)Gal(b1-4)GlcNAc(b1-3)Gal(b1-4)Glc
# How it was run: as §1
# [27] = biological target: GlcNAc(a1-4)Gal(b1-4)GlcNAc(b1-3)Gal(b1-4)GlcNAc
# How it was run: as §1
# [28] = biological target: GlcNAc(a1-4)Gal(b1-4)GlcNAc(b1-3)Gal(b1-4)GlcNAc(b1-3)Gal(b1-4)GlcNAc
# How it was run: as §1
# [29] = biological target: GlcNAc(a1-4)Gal(b1-4)GlcNAc(b1-3)Gal(b1-4)[Fuc(a1-3)]GlcNAc(b1-3)Gal(b1-4)[Fuc(a1-3)]GlcNAc
# How it was run: as §1
# [30] = biological target: GlcNAc(a1-6)Gal(b1-4)GlcNAc
# How it was run: as §1
# [31] = biological target: GlcNAc(b1-2)Gal(b1-3)GalNAc
# How it was run: as §1
# [32] = biological target: GlcNAc(b1-2)Man(a1-3)[GlcNAc(b1-2)Man(a1-6)]Man(b1-4)GlcNAc(b1-4)GlcNAc
# How it was run: as §1
# [33] = biological target: GlcNAc(b1-2)Man(a1-3)[GlcNAc(b1-2)Man(a1-6)]Man(b1-4)GlcNAc(b1-4)[Fuc(a1-6)]GlcNAc
# How it was run: as §1
# [34] = biological target: GlcNAc(b1-2)Man(a1-3)[GlcNAc(b1-4)][GlcNAc(b1-2)Man(a1-6)]Man(b1-4)GlcNAc(b1-4)GlcNAc
# How it was run: as §1
# [35] = biological target: GlcNAc(b1-2)Man(a1-3)[GlcNAc(b1-4)][GlcNAc(b1-2)Man(a1-6)]Man(b1-4)GlcNAc(b1-4)[Fuc(a1-6)]GlcNAc
# How it was run: as §1
# [36] = biological target: GlcNAc(b1-2)[GlcNAc(b1-4)]Man(a1-3)[GlcNAc(b1-2)Man(a1-6)]Man(b1-4)GlcNAc(b1-4)GlcNAc
# How it was run: as §1
# [37] = biological target: GlcNAc(b1-2)[GlcNAc(b1-4)]Man(a1-3)[GlcNAc(b1-4)][GlcNAc(b1-2)Man(a1-6)]Man(b1-4)GlcNAc(b1-4)GlcNAc
# How it was run: as §1
# [38] = biological target: GlcNAc(b1-2)[GlcNAc(b1-4)]Man(a1-3)[GlcNAc(b1-4)][GlcNAc(b1-2)[GlcNAc(b1-6)]Man(a1-6)]Man(b1-4)GlcNAc(b1-4)GlcNAc
# How it was run: as §1
# [39] = biological target: GlcNAc(b1-2)[GlcNAc(b1-4)]Man(a1-3)[GlcNAc(b1-4)][GlcNAc(b1-2)[GlcNAc(b1-6)]Man(a1-6)]Man(b1-4)GlcNAc(b1-4)[Fuc(a1-6)]GlcNAc
# How it was run: as §1
# [40] = biological target: GlcNAc(b1-2)[GlcNAc(b1-6)]Man(a1-6)[GlcNAc(b1-2)Man(a1-3)]Man(b1-4)GlcNAc(b1-4)GlcNAc
# How it was run: as §1
# [41] = biological target: GlcNAc(b1-2)[GlcNAc(b1-6)]Man(a1-6)[GlcNAc(b1-2)Man(a1-3)]Man(b1-4)GlcNAc(b1-4)[Fuc(a1-6)]GlcNAc
# How it was run: as §1
# [42] = biological target: GlcNAc(b1-2)[GlcNAc(b1-6)]Man(a1-6)[GlcNAc(b1-4)][GlcNAc(b1-2)Man(a1-3)]Man(b1-4)GlcNAc(b1-4)GlcNAc
# How it was run: as §1
# [43] = biological target: GlcNAc(b1-3)Fuc
# How it was run: as §1
# [44] = biological target: GlcNAc(b1-3)Gal
# How it was run: as §1
# [45] = biological target: GlcNAc(b1-3)Gal(b1-3)GalNAc
# How it was run: as §1
binder,measurement,setting,value
B1,glycan array binding signal (z-score),[1],-0.379
same,glycan array binding signal (z-score),[2],0.074
same,glycan array binding signal (z-score),[3],-0.126
same,glycan array binding signal (z-score),[4],-0.352
same,glycan array binding signal (z-score),[5],-0.421
same,glycan array binding signal (z-score),[6],-0.36
same,glycan array binding signal (z-score),[7],-0.465
same,glycan array binding signal (z-score),[8],-0.07
same,glycan array binding signal (z-score),[9],-0.445
same,glycan array binding signal (z-score),[10],-0.43
same,glycan array binding signal (z-score),[11],0.695
same,glycan array binding signal (z-score),[12],-0.133
same,glycan array binding signal (z-score),[13],1.14
same,glycan array binding signal (z-score),[14],0.263
same,glycan array binding signal (z-score),[15],0.446
same,glycan array binding signal (z-score),[16],0.723
same,glycan array binding signal (z-score),[17],0.253
same,glycan array binding signal (z-score),[18],-0.279
same,glycan array binding signal (z-score),[19],0.657
same,glycan array binding signal (z-score),[20],-0.322
same,glycan array binding signal (z-score),[21],-0.135
same,glycan array binding signal (z-score),[22],-0.255
same,glycan array binding signal (z-score),[23],-0.342
same,glycan array binding signal (z-score),[24],-0.096
same,glycan array binding signal (z-score),[25],-0.317
same,glycan array binding signal (z-score),[26],-0.436
same,glycan array binding signal (z-score),[27],-0.398
same,glycan array binding signal (z-score),[28],-0.271
same,glycan array binding signal (z-score),[29],0.294
same,glycan array binding signal (z-score),[30],-0.429
same,glycan array binding signal (z-score),[31],-0.4
same,glycan array binding signal (z-score),[32],-0.062
same,glycan array binding signal (z-score),[33],-0.154
same,glycan array binding signal (z-score),[34],-0.288
same,glycan array binding signal (z-score),[35],-0.283
same,glycan array binding signal (z-score),[36],-0.244
same,glycan array binding signal (z-score),[37],-0.138
same,glycan array binding signal (z-score),[38],-0.202
same,glycan array binding signal (z-score),[39],-0.385
same,glycan array binding signal (z-score),[40],0.042
same,glycan array binding signal (z-score),[41],-0.185
same,glycan array binding signal (z-score),[42],-0.139
same,glycan array binding signal (z-score),[43],-0.353
same,glycan array binding signal (z-score),[44],-0.08
same,glycan array binding signal (z-score),[45],-0.007
